Measured values as given in PubChem BioAssay AID493208 (National Center for Advancing Translational Sciences (NCATS), 2011).
Out of some 44,000 compounds screened, about 340 (0.77%) were called active. Not shown: some 5% with an inconclusive outcome. The call rests on the fitted dose curve; in most records, active means well fitted inhibition curve with a large enough effect; inconclusive means small, poorly fitted or top-dose-only effect; inactive means flat fitted curve, though single readings scatter. This is one part of the list.

Assay: Acumen qHTS Assay for Inhibitors of the mTORC1 Signaling Pathway in MEF (Tsc2-/-, p53-/-) Cells: Sytravon; further: nearly all actives have a fitted effect of over 50% in size;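 on activity change, negative = inhibition: plate controls were DMSO for no effect and rapamycin for full effect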
Settings: phospho-rpS6 immunofluorescence/PI, 24 h; series mostly up to 38.3 µM; activity change, negative = inhibition: at the top concentration
Procedure, shortened: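 Compounds act on Tsc2-/-, p53-/- fibroblasts carrying an empty vector for 24 h before fixation and dual staining for phospho-S6 and DNA (propidium iodide). Values are percentages of cells above a rapamycin-defined pS6/PI threshold.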
Potency means the concentration at half of the fitted maximal effect.

| Structure (SMILES) | activity change, negative = inhibition | Potency |
| --- | --- | --- |
| COc1cccc(C(=O)Nc2c3c(nn2-c2ccc(Cl)cc2)CS(=O)(=O)C3)c1 | inactive: 9.96% | – |
| COc1ccc(NC(=O)c2oc3ccc(S(=O)(=O)N(C)C4CCCCC4)cc3c2C)cc1 | inactive: 2.01% | – |
| C=CCC(CC=C)(CNC(=O)C(=O)Nc1ccc(C(=O)OCC)cc1)c1ccccc1 | inactive: 2.56% | – |
| COC(=O)c1ccccc1NC(=O)c1cc2c(-c3ccc(OC)c(OC)c3)nn(C)c2s1 | inactive: -2.45% | – |
| Cc1ccc(-c2nc3ccccn3c2Nc2ccc3c(c2)OCO3)o1 | inactive: -1.26% | – |
| Cc1ccc(NC(=O)C(Cc2ccccc2)n2cccc2)cc1C (stereo not given) | inactive: -0.121% | – |
| CCCN(C(=O)c1cc2c(s1)-c1c(C)cccc1OC2)c1ccc(OCC)cc1 | inactive: -0.421% | – |
| CC(C)c1ccc(Nc2nc3c(S(=O)(=O)c4ccc(Br)cc4)nnn3c3ccsc23)cc1 | inactive: -0.415% | – |
| COc1ccc(-c2nn(-c3cccc([N+](=O)[O-])c3)c3c2cnc2cc4c(cc23)OCO4)cc1 | inactive: 14.3% | – |
| Cc1cc2nc(-c3cccc(NC(=O)CSc4ccc(Cl)cc4)c3)oc2cc1C | inactive: -1.19% | – |
| CCSc1nnnn1-c1cccc(C(=O)O)c1 | inactive: -5.56% | – |
| CCOC(=O)c1cc(-c2ccc(C)cc2)n(CC(=O)NC2CCCCCC2)c1C | inactive: 0.621% | – |
| Cc1cccc(-c2c3c(=O)n(C)c(=O)n(C)c3c3cnc4ccccc4n23)c1 | inactive: 0.871% | – |
| Cc1c(NC(=O)Nc2ccc(C#N)cc2)c(=O)n(-c2ccccc2)n1C | inactive: 6.15% | – |
| COc1ccc(C2c3[nH]c4ccc(OC)cc4c3CCN2C(=O)Nc2ccccc2)cc1 (stereo not given) | inactive: -12.7% | – |
| CCC(=O)Nc1sc2c(c1C(=O)Nc1cccc(C)c1)CCCC2 | inactive: -0.694% | – |
| Cc1cccc(C(=O)Nc2ccc(OCc3cc(=O)n4c5c(sc4n3)CCCC5)cc2)c1 | inactive: 2.16% | – |
| Cc1ccc(NC(=O)Cn2cc(S(=O)(=O)c3ccccc3)c(=O)c3cc4c(cc32)OCO4)cc1 | inactive: -10.4% | – |
| COC(=O)Cc1c(C)c2cc3c(c(C)c2oc1=O)OCN(CCc1ccc(OC)cc1)C3 | inactive: -7.07% | – |
| CCN(CCN(C)C)C(=O)C1CCN(S(=O)(=O)c2c(C)noc2/C=C/c2ccccc2F)CC1 | – | active: 18.5 µM |
| Cc1cc(C)c(NC(=O)Cn2nnc(-c3nc(-c4ccccc4)no3)c2N)c(C)c1 | inactive: -1.1% | – |
| Cc1cc(C)c2c(n1)SCCN2C(=O)Nc1ccc(C(=O)Nc2ccc(C(C)C)cc2)cc1 | inactive: 0.0831% | – |
| CCN(CC)c1ccc2cc(-c3nc(-c4cc(OC)c(OC)c(OC)c4)no3)c(=O)oc2c1 | inactive: -7.73% | – |
| Cc1ccc(C)c(NC(=O)C(c2ccccc2)N2Cc3ccccc3C2=O)c1 (stereo not given) | inactive: -0.428% | – |

| Structure (SMILES) | activity change, negative = inhibition | Potency |
| --- | --- | --- |
| COc1ccc(-c2cc(=O)oc3c4c(ccc23)OCN(Cc2cccc(OC)c2)C4)cc1 | inactive: -5.09% | – |
| COC(=O)c1ccccc1NC(=O)Cn1c(=O)n(CCCC(=O)NCc2ccccc2OC)c(=O)c2ccccc21 | inactive: 0.27% | – |
| COc1cc2cc(CNc3ccccc3)c(=O)n(CC(=O)Nc3cc(C)cc(C)c3)c2cc1OC | inactive: -7.71% | – |
| O=C(CCC1N=C2c3ccccc3N=C(SCc3ccc(F)cc3)N2C1=O)NC1CCCCC1 (stereo not given) | inactive: -1.27% | – |
| CC(=O)c1ccc(NC(=O)c2nc3nc(C)cc(C(F)F)n3n2)cc1 | inactive: 2.27% | – |
| CCOc1ccc(-n2nc(CO)c(C(=O)NCc3cccc(OC)c3)n2)cc1 | inactive: -13.5% | – |
| Cc1cc(C)cc(-n2ccn(CC(=O)Nc3ccccc3F)c(=O)c2=O)c1 | inactive: 7.84% | – |
| CSc1ncc(C(=O)Nc2cc(Cl)ccc2C)c(-c2ccccc2)n1 | inactive: -0.743% | – |
| COc1ccccc1NC(=O)C1CCN(c2cnccn2)CC1 | inactive: -6.93% | – |
| CC(=O)N1CCCc2cc(S(=O)(=O)N3CCN(c4cccc(C(F)(F)F)c4)CC3)ccc21 | inactive: -15.7% | – |
| CCOC(=O)c1ccc(NC(=O)CSc2nc3c([nH]c4ccccc43)c(=O)n2C)cc1 | inactive: -17.2% | – |
| Cc1cn2c(=O)cc(COc3ccccc3NC(=O)c3ccc(Cl)cc3)nc2s1 | inactive: -20.8% | – |
| Cc1ccc(NC(=O)C2CCC(CNS(=O)(=O)c3ccc4c(c3)CCCC(=O)N4)CC2)c(C)c1 (stereo not given) | inactive: -1.05% | – |
| Cc1ccccc1-c1noc(-c2cc(-c3ccc(F)cc3)n[nH]2)n1 | inactive: -7.25% | – |
| CCCCc1nc2ccccc2n1CC(=O)N(COCC)c1c(C)cccc1CC | inactive: 0.793% | – |
| Cc1cc(C)cc(NC(=O)C2CCN(S(=O)(=O)c3ccc4c(c3)oc(=O)n4C)CC2)c1 | inactive: 1.15% | – |
| Cc1ccc2oc(-c3ccc(Cl)c(NC(=O)c4ccc(OC(C)C)cc4)c3)nc2c1 | inactive: 2.46% | – |
| CC(C)c1ccc(Nc2c(-c3ccco3)nc3ccccn23)cc1 | inactive: 0.799% | – |
| COc1cc(NC(=O)c2ccc(-n3cnc4cccnc43)cc2)cc(OC)c1 | inactive: -6.28% | – |
| Cc1ccc(S(=O)(=O)N(CC(=O)Nc2ccc3c(c2)OCO3)c2ccc(C)c(Cl)c2)cc1 | inactive: 0.9% | – |
| CCOC(=O)c1cc(NC(=O)c2ccc(OC)cc2)c(=O)n2c1oc1ccc(Cl)cc12 | inactive: -0.478% | – |
| CCn1c(CNC(=O)C23CC4CC(CC(C4)C2)C3)nnc1SCC(=O)Nc1ccc(F)cc1 | inactive: -14.1% | – |
| CC1Cc2ccccc2N1C(=O)CSc1nnc(-c2cccc(Cl)c2)o1 (stereo not given) | inactive: -1.33% | – |
| O=c1[nH]c2ccc(NCc3ccccc3F)cc2[nH]1 | inactive: 1.4% | – |

| Structure (SMILES) | activity change, negative = inhibition | Potency |
| --- | --- | --- |
| CCOc1ccc(CCNC(=O)c2cc3c(=O)n(C)c4ccccc4c3n2C)cc1 | inactive: 1.41% | – |
| O=C(CCc1ccccc1)NCc1ccc2c(c1)CCN2C(=O)c1ccc(Cl)cc1 | inactive: -6.24% | – |
| CCc1cccc(NC(=O)CC2Oc3ccc(C)cc3NC2=O)c1 (stereo not given) | inactive: -0.7% | – |
| Cc1ccc(NC(=O)CC2Sc3ccccc3NC2=O)c(Br)c1 (stereo not given) | inactive: -28.2% | – |
| C=C(C)Cn1c(SCC(=O)Nc2cccc(Cl)c2)nc2sc3c(c2c1=O)CCCC3 | inactive: -11.1% | – |
| O=C(NCCS(=O)(=O)N1CCN(c2cccc(Cl)c2)CC1)c1cc(=O)c2ccccc2o1 | inactive: -5.91% | – |
| CC1=C(c2ccc(C)c(C)c2)S(=O)(=O)N=C1N1CCC(C(=O)NCc2ccc(Cl)cc2)CC1 | inactive: -0.815% | – |
| O=C(NCCC1=CCCCC1)c1ccc2c(c1)N(Cc1ccc(Cl)cc1)C(=O)c1ccccc1S2=O (stereo not given) | inactive: -8.87% | – |
| COc1ccc(-n2c(=O)c3c(c4cc(OC)ccc4n3C)n(C)c2=O)cc1 | inactive: 0.393% | – |
| CCOc1ccc(NC(=O)Cn2cc(C(=O)c3ccc(CC)cc3)c(=O)c3ccc(C)nc32)cc1 | inactive: -9.08% | – |
| CCOC(=O)c1cccc(NC(=O)c2cnc(N3CCCCC3)c3ccccc23)c1 | inactive: -5.33% | – |
| Cc1ccc(-n2c(=O)c3cccnc3n2CC(=O)NCc2ccc(F)cc2)cc1C | inactive: 0.569% | – |
| Cc1ccc(CNC(=O)CN2CCCN(Cc3ccc(F)cc3)S2(=O)=O)cc1 | inactive: 19.5% | – |
| Cc1cc(C)c(/C=C/c2onc(C)c2S(=O)(=O)N2CCC(C(=O)Nc3ccc(Cl)c(C(F)(F)F)c3)CC2)c(C)c1 | inactive: -13.5% | – |
| O=C(COc1ccccc1F)Nc1ccc(Cl)c(-c2nc3ccccc3[nH]2)c1 | inactive: -20.3% | – |
| COc1ccc(NC(=O)CSc2nccn2Cc2ccco2)cc1OC | inactive: -1.95% | – |
| Cc1cccc(Cn2c(=O)n(-c3ccc(Cl)c(Cl)c3)c(=O)c3c(C)c(C)sc32)c1 | inactive: 4.63% | – |
| CCOC(=O)c1cnc2ccccc2c1Nc1ccc(N2CCOCC2)cc1 | inactive: 1.66% | – |
| CCc1ccc(N2CCn3c2nc2c3c(=O)n(CCc3ccccc3)c(=O)n2C)cc1 | inactive: -4.73% | – |
| Cc1ccc2nc(NC(=O)CSc3nccn3Cc3ccccc3)sc2c1 | inactive: 0% | – |
| CCOCCc1nnc(NC(=O)C(=O)c2cc(C)n(-c3cccc(Cl)c3)c2C)s1 | inactive: 3.59% | – |
| COc1cc(NC(=O)c2cc(-c3cccc(Cl)c3)on2)c(OC)cc1Cl | inactive: 2.32% | – |
| Clc1ccc(-c2nc3ccccn3c2Nc2ccc3c(c2)OCCO3)s1 | inactive: -7.96% | – |
| Cc1ccc(N(CC(=O)N2CCN(c3cc(Cl)ccc3C)CC2)S(=O)(=O)c2c(C)noc2C)cc1 | inactive: 8.82% | – |

| Structure (SMILES) | activity change, negative = inhibition | Potency |
| --- | --- | --- |
| Cc1noc2ncnc(NCc3ccccc3Cl)c12 | inactive: -25.1% | – |
| CCOc1ccc(NC(=O)C(=O)NCCc2csc(-c3ccc(C)cc3)n2)cc1 | inactive: 1.08% | – |
| COc1ccc(NC(=O)c2sc3nc(C)c(C(=O)Nc4ccc(C)cc4C)c(-c4cccs4)c3c2N)cc1 | inactive: -4.03% | – |
| Cc1ccc(C)c(N2CCN(C(c3ccc(F)cc3)c3nnc(-c4ccccc4)o3)CC2)c1 (stereo not given) | inactive: -2.93% | – |
| CCN(Cc1ccccc1)C(=O)Cn1c(=O)oc2cc(S(=O)(=O)N3CCCCCC3)ccc21 | inactive: -12.3% | – |
| Cc1ccccc1CSc1cn(CC(=O)N2CCCC2)c2ccccc12 | inactive: 0% | – |
| CCC(=O)N1CCc2cc(S(=O)(=O)NCCC(=O)Nc3ccc(OC)c(OC)c3)ccc21 | inactive: -0.961% | – |
| COc1cc(-c2nnn(CC(=O)NCc3ccccc3)n2)cc(OC)c1OC | inactive: -13.6% | – |
| COc1ccc(NC(=O)CSc2nnc3c(C)cc4ccccc4n23)cc1 | inactive: 1.64% | – |
| Cc1cnc2c(c1SCC(=O)NCc1ccc(F)cc1)c(=O)n(C)c(=O)n2C | inactive: 2.17% | – |
| CCOc1ccc(-c2cc(C(=O)N3CCN(c4ccc(C)cc4)C(C)C3)c3ccccc3n2)cc1 (stereo not given) | inactive: -5.97% | – |
| COc1cccc(CNC(=O)CCCn2c(=O)c3cccn3c3cccnc32)c1OC | inactive: -17.7% | – |
| CC(C)(C)c1ccc(OCC(=O)NC(Cc2c[nH]c3ccccc23)C(=O)O)cc1 (stereo not given) | inactive: 1.29% | – |
| CCCCn1nc(NC(=O)c2cccc(Cl)c2)c2cc3ccc(C)cc3nc21 | inactive: -5.01% | – |
| CC(=O)Nc1ccc(NS(=O)(=O)c2cc3c4c(c2)CC(=O)N4CCC3)cc1 | inactive: -2.96% | – |
| COc1cc(C(=O)NCCS(=O)(=O)N2CCN(c3ccccc3)CC2)cc(OC)c1OC | inactive: -2.69% | – |
| COc1ccc(-c2cc3nc(C)c(CCC(=O)N4CCN(c5cc(C)ccc5C)CC4)c(C)n3n2)c(OC)c1 | inactive: -5.31% | – |
| Cn1cc(S(=O)(=O)c2ccc(Cl)cc2)c(=O)c2cc(F)c(N3CCOCC3)cc21 | inactive: -3.11% | – |
| CCOc1ccc(NC(=O)CN2CCN(CC(=O)Nc3ccc(OC)cc3)CC2)cc1 | inactive: -0.401% | – |
| COc1ccccc1/C=C/c1nc(C#N)c(N2CCN(c3ccccc3)CC2)o1 | inactive: -1.77% | – |
| COc1ccc(N2CCN(S(=O)(=O)CCNC(=O)c3ccc(OC(C)C)cc3)CC2)cc1 | inactive: 1.52% | – |
| Cc1ccc(Nc2c(-c3ccccc3O)nc3cc(C)ccn23)cc1 | inactive: -17.5% | – |
| CN(C(=O)CSc1nc2ccc(NC(=O)COc3ccccc3Cl)cc2s1)c1ccccc1 | inactive: -7.36% | – |
